# Reference: PubChem BioAssay AID1030 (National Center for Advancing Translational Sciences (NCATS), 2008)
# The whole screen tested about 220,000 compounds, of which about 16,000 (7.3%) were called active. Inconclusive results, whose numbers are uncertain, are shown with a selection of clear calls. Calls follow the shape of the dose curve; as a rule, active = well fitted inhibition curve with a large enough effect (not every such curve was filed as active); inconclusive = small, poorly fitted or top-dose-only effect, or another doubt; inactive = no such curve, though single readings can be large or run the other way. Potencies of inconclusive entries are left out as doubtful fits.
# Target: Aldehyde dehydrogenase 1A1 (Homo sapiens) (UniProt P00352)
# Assay: qHTS Assay for Inhibitors of Aldehyde Dehydrogenase 1 (ALDH1A1);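 as to activity, negative = inhibition: plate controls were no enzyme wells and a reference inhibitor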
# Conditions: Purified ALDH1A1, NADH fluorescence, propionaldehyde substrate; series mostly up to 75.3 µM; activity, negative = inhibition: at the top concentration
# Potency is read from the fitted curve at half-maximal effect; tags tell the direction and shape of the fitted curve.
# Sequence of UniProt P00352 (P00352 whole entry, looked up): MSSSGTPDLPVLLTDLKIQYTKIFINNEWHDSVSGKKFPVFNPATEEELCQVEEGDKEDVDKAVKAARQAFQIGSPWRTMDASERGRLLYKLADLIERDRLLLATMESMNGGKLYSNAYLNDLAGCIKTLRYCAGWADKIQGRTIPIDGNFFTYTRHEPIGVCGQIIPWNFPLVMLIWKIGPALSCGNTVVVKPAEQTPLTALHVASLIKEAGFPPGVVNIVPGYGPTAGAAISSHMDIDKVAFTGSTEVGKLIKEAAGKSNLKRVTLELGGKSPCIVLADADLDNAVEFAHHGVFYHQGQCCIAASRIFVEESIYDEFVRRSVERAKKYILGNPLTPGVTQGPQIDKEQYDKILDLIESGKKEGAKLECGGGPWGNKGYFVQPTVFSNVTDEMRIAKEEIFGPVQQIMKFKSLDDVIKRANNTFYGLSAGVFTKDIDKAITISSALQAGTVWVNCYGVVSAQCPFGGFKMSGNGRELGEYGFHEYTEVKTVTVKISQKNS
SMILES,Potency,"activity, negative = inhibition"
CC(C)Cc1nc(N2CCN(C(=O)c3ccco3)CC2)c(C#N)c2c1CCC2,"inconclusive [inhibitor, partial curve]",–
O=C(O)CNC(=O)c1ccc([N+](=O)[O-])cc1,–,inactive: 1.45%
O=C(Nc1ccc(Cl)c(Cl)c1)Nc1cc(S(=O)(=O)N2CCOCC2)ccc1N1CCCC1,"inconclusive [inhibitor, single point]",–
CCc1nnc(NC(=O)CSc2nnc(Cc3ccccc3)o2)s1,"inconclusive [inhibitor, partial curve]",–
O=C(CNC1CCCCCC1)c1cccs1,active: 5.97 µM,–
CCOC(=O)N/N=C(/C)c1ccc(N2C(=O)C3CCCCC3C2=O)cc1 (stereo unspecified),–,inactive: -14%
CCOC(=O)c1c(NC(=O)c2ccco2)sc2c1CCCCC2,"inconclusive [inhibitor, single point]",–
Cn1c(=O)n(C)c2cc(S(=O)(=O)NCc3ccco3)ccc21,"inconclusive [inhibitor, single point]",–
CC1CCCC(C)N1C(=O)CSc1nnc(-c2cccs2)o1 (stereo unspecified),"inconclusive [inhibitor, single point]",–
Cc1ccccc1C(=O)Nc1nnc(-c2ccco2)s1,"inconclusive [inhibitor, partial curve]",–
Cc1no[n+]([O-])c1COc1cccc(/C=N/Nc2nncn2N)c1,"inconclusive [inhibitor, single point]",–
Cc1cc(C(F)(F)F)nn1-c1nc(-c2ccco2)cc(C(F)(F)F)n1,"inconclusive [inhibitor, single point]",–
CC(C)c1nnc(N2C(=O)C(O)=C(C(=O)c3cccs3)C2c2ccccc2)s1 (stereo unspecified),"inconclusive [inhibitor, single point]",–
COc1ccccc1CNc1ncnc2c1nnn2Cc1ccccc1,"inconclusive [inhibitor, single point]",–
Cc1c(C(=O)NCCC2=CCCCC2)cccc1[N+](=O)[O-],"inconclusive [inhibitor, single point]",–
COC(=O)c1ccc(CN2CCN(C(C)C)C(CCO)C2)cc1 (stereo unspecified),–,inactive: -6.55%
Cc1cccc(NC(=O)c2cc3cc([N+](=O)[O-])ccc3s2)n1,–,inactive: 0.22%
COc1cccc(C(=O)CN(C(=O)c2ccc(Cl)c(Cl)c2)N2C(=O)c3ccccc3C2=O)c1,active: 14.1 µM,–
COC(=O)c1ccc(COc2ccc3c(C)c(C)c(=O)oc3c2C)o1,"inconclusive [inhibitor, partial curve]",–
CCN(C(=O)COC(=O)c1c2c(nc3ccccc13)/C(=C/c1ccccc1)CC(C)C2)C1CCS(=O)(=O)C1 (stereo unspecified),"inconclusive [inhibitor, partial curve]",–
CCc1ccc(S(=O)(=O)Nc2cc(SCC(=O)O)c(O)c3ccccc23)cc1,active: 14.1 µM,–
O=C(Nc1cccnc1)c1ccccc1NS(=O)(=O)c1ccc(F)cc1,"inconclusive [inhibitor, single point]",–
COc1ccc(Cl)cc1C(=O)Nc1ccc(NC(=O)C(C)C)cc1,–,inactive: -5.43%

SMILES,Potency,"activity, negative = inhibition"
CC(NC(=O)C1CC=CCC1C(=O)O)C1CC2CCC1C2 (stereo unspecified),–,inactive: 6.55%
CCC(=O)Nc1ccc(NC(=O)CSc2nnc(-c3ccc(O)cc3)n2CC2CCCO2)cc1 (stereo unspecified),"inconclusive [inhibitor, single point]",–
COC(=O)C/C=C\[C@@H](C)[C@@H](/C=N\O[C@@H](C)c1cc(-c2c(C)cc(C)cc2C)no1)NS(=O)(=O)c1ccc(C)cc1,"inconclusive [inhibitor, single point]",–
FC(F)(F)c1cccnc1Oc1ccc(C2=NCCS2)cc1,"inconclusive [inhibitor, single point]",–
O=C(NCc1ccco1)c1sc2cc(Cl)ccc2c1Cl,active: 20 µM,–
Cc1ccc(OCCCNCCO)c(Br)c1,"inconclusive [inhibitor, single point]",–
Cc1ccc(S(=O)(=O)N(Cc2cc3cc4c(cc3[nH]c2=O)OCCO4)CC2CCCO2)cc1 (stereo unspecified),"inconclusive [inhibitor, partial curve]",–
COc1ccc(S(=O)(=O)Nc2ccc(NC(C)=O)cc2)cc1Br,–,inactive: -3.56%
Cc1cccc(NC(=O)c2ccccc2OCC(=O)N2CCCC2)c1C,–,inactive: -9.9%
CCOC(=O)N1CCN(CC(=O)Nc2c(C(=O)OC)[nH]c3ccc(Cl)cc23)CC1,"inconclusive [inhibitor, single point]",–
COc1cc2oc(=O)c3c4c(cc5ccc(c1CCN(C)C)c2c53)OCO4,"inconclusive [inhibitor, single point]",–
CC(C)(C)c1ccc(S(=O)(=O)Nc2ccccn2)cc1,active: 31.6 µM,–
COCCCNC(=O)CC(=O)N/N=C\c1ccc(SC)cc1,"inconclusive [inhibitor, single point]",–
Cc1ccc(C(=O)NC(=S)NCc2cccnc2)cc1C,"inconclusive [inhibitor, single point]",–
Cc1noc(C)c1COC(=O)c1cc2c3ccccc3n(C)c2s1,"inconclusive [inhibitor, single point]",–
O=C(O)c1cc(NCc2ccc3c(c2)OCO3)ccc1N1CCOCC1,"inconclusive [inhibitor, single point]",–
COC(=O)COc1ccc2oc(=O)cc(C)c2c1,"inconclusive [inhibitor, single point]",–
CC(C)c1ccc(/C=N/NC(=O)C(=O)NCCCN2CCOCC2)cc1,active: 14.1 µM,–
CC(NCc1ccc2c(c1)OCO2)C(=O)NC1CCCc2ccccc21 (stereo unspecified),"inconclusive [inhibitor, partial curve]",–
Cc1ccc2oc(-c3ccco3)cc(=O)c2c1,"inconclusive [inhibitor, partial curve]",–
COc1ccc(N=Nc2c(N)n[nH]c2N)cc1,–,inactive: 8.02%
CCCCCCCCC(=O)NCCOc1ccc(OC)cc1,–,inactive: 3.64%
Cc1ccc(C(=O)N2CCCC(C(=O)c3cc(F)ccc3F)C2)s1 (stereo unspecified),–,inactive: -6.26%
